PubChem BioAssay AID686971 (National Center for Advancing Translational Sciences (NCATS), 2013)
About 7,500 (2.1%) of roughly 360,000 compounds were called active. This list was built around the results that the source calls inconclusive (neither active nor inactive); the mix of calls is not that of the screen. Calls come from the whole dose curve; as a rule, active = well fitted cell-killing curve with a large enough effect; inconclusive = small, poorly fitted or top-dose-only effect, or effect the other way, or another doubt; inactive = no such curve, though single readings can be large or run the other way. No potency is given beside an inconclusive call; the fits are too rough.

Experiment: qHTS for induction of synthetic lethality in tumor cells producing 2HG: qHTS for the HT-1080-IDH1KD cell line;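 for activity, negative = toxicity: 0% = DMSO wells and -100% = cell-free medium wells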
Conditions: HT-1080 IDH1 knockdown viability, ATP luminescence, 48 h; activity, negative = toxicity: at 46.1 µM (top of the series) unless noted
How it was run: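 Knockdown cells (IDH1KD HT-1080) received compounds 2 h after plating at 750 cells/well and were kept 48 h at 37 °C in 5% FBS RPMI. A CellTiter-Glo luminescence read gave % activity for curve fitting.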
Potency is the fitted concentration of half-maximal effect; tags give direction and shape of the fitted curve.

Row | SMILES | activity, negative = toxicity | Potency
1 | O=C(O)c1ccc(OCCN2CCCC2=O)cc1 | inactive: 20.9% | –
2 | COc1cccc(CNC(=O)CCNC(=O)C2CCN(S(=O)(=O)c3ccc(F)cc3)CC2)c1 | inconclusive: -3.72% [cytotoxic] | –
3 | COc1cc(OC)c(C(=O)Nc2cc(Cl)ccc2-n2cncn2)cc1OC | inactive: 2.54% | –
4 | CCOC(=O)C1=C(N)Oc2cc(O)ccc2C1c1cccc([N+](=O)[O-])c1 (stereo unspecified) | – | active: 5.8 µM
5 | O=C(Nc1ccc(OC(F)(F)F)cc1)N1CCN(c2ccnc3cc(Cl)ccc23)CC1 | – | inconclusive [cytotoxic, single point]
6 | COCC(C)n1c(C)cc(C(=O)COC(=O)c2cc(=O)[nH]c3ccccc23)c1C (stereo unspecified) | inactive: -4.59% | –
7 | O=C(NC1CCCCC1)c1noc2c1CCCCC2 | inconclusive: 4.65% | –
8 | O=C(Nc1ncc(S(=O)(=O)c2ccc([N+](=O)[O-])cc2)s1)c1cccnc1 | – | active: 23.1 µM
9 | CNC(=O)c1ccc(Nc2nc(-c3ccccc3)nc3ccccc23)cc1 | – | active: 18.4 µM
10 | COC(=O)c1sccc1NC(=O)c1c(Cl)cnn1C | inactive: 1.37% | –
11 | COc1ccc(/C=C2\SC(=Nc3ccccc3OC)NC2=O)cc1 | – | inconclusive [cytotoxic, single point]
12 | CCCc1cc(C(=O)Nc2ccc(C(=O)c3ccc(C)cc3)cc2)n(C)n1 | – | inconclusive [cytotoxic, single point]
13 | CCn1c(CNC(=O)c2cc(OC)c(OC)c(OC)c2)cc2ccccc21 | – | inconclusive [cytotoxic, partial curve]
14 | NC(=O)CN1C(=O)C2C3CCC(C3)C2C1=O (stereo unspecified) | – | inconclusive [cytotoxic, single point]
15 | COc1ccc(S(=O)(=O)N2CCC[C@@H]2C(=O)N2CCC[C@H]2C(=O)NCc2ccncc2)cc1C | inactive: -2.64% | –
16 | CS(=O)(=O)c1ccc(NC(=O)c2cc3c(cc2Cl)N2CCCCCC2=NS3(=O)=O)cc1 | inactive: -7.16% | –
17 | CCOC(=O)C1(C)CCCCCN1C(=O)c1ccc(C(F)(F)F)nc1C (stereo unspecified) | inactive: 5.44% | –
18 | CN1CCN(c2nc3cc(C(F)(F)F)ccc3n3cccc23)CC1 | – | active: 23.1 µM
19 | O=C(Nc1ccc(Br)c(C(F)(F)F)c1)c1ccc(C(F)(F)F)cc1 | – | active: 13 µM
20 | COc1cccc(N2CCN(CC(=O)c3c(C)[nH]c4ccccc34)CC2)c1 | – | inconclusive [cytotoxic, single point]
21 | O=C(COc1ccccc1)Nc1cccc(-c2nc3cc4ccccc4cc3[nH]2)c1 | – | inconclusive [cytotoxic, single point]
22 | Cc1ccc(C(=O)NC(=S)Nc2ccccc2N2CCOCC2)cc1C | – | inconclusive [cytotoxic, partial curve]
23 | CN1CCN(CCC(=O)N/N=C/c2cc([N+](=O)[O-])ccc2O)CC1 | inconclusive: -32.9% [cytotoxic] | –
24 | NS(=O)(=O)c1cccc(NC(=O)CCS(=O)(=O)c2ccc(Cl)cc2)c1 | inactive: -8.02% | –
25 | COc1ccc(CN2C(=O)CCCc3ccccc32)cc1 | – | inconclusive [cytotoxic, single point]
26 | CCOc1ccc(-c2nc(C#N)c(NCC(C)C)o2)cc1 | – | inconclusive [cytotoxic, single point]

Row | SMILES | activity, negative = toxicity | Potency
27 | Cc1ccc(N=C2C(=O)Nc3ccccc32)cc1 | inactive: 0.659% | –
28 | CCOc1cccc(NC(=O)C2CC(=O)N(C)C(=Nc3ccccc3)S2)c1 (stereo unspecified) | – | inconclusive [cytotoxic, single point]
29 | C=CCn1c(CNC(=O)c2ccco2)nnc1SCC(=O)N1c2ccccc2Sc2ccccc21 | inconclusive: 29.8% | –
30 | CCCn1c(CN2CCN(C(=O)OCC)CC2)nc2cc([N+](=O)[O-])ccc21 | inactive: -9.64% | –
31 | COc1ccc(-c2ccc(C(=O)NCc3ccncc3)c3occc23)c(C)c1 | – | inconclusive [cytotoxic, full curve]
32 | CC1Nc2ncnc(N3CCN(c4ccccc4)CC3)c2N(Cc2ccc(Br)cc2)C1=O (stereo unspecified) | – | inconclusive [cytotoxic, single point]
33 | CCc1cc(-c2cnnn2Cc2ccc3ccccc3c2)ccc1-c1cn(CC(C)C)nn1 | inactive: 7.29% | –
34 | COc1ccc(/C(C)=N/NC(=O)c2ccccc2N)cc1 | inactive: -1.95% | –
35 | Cc1nc2ncnn2c(C)c1CCC(=O)N1CC(C)CC(C)C1 (stereo unspecified) | inactive: 2.82% | –
36 | Cc1ccc(NC(=O)c2cccs2)cc1NC(=O)c1cccc(F)c1 | inactive: 0.524% | –
37 | CCCCCCOC(=O)C(C#N)c1nc2ccccc2nc1N1CCN(CC)CC1 (stereo unspecified) | – | active: 23.1 µM
38 | C/C(O)=C(/C#N)c1nc2ccccc2[nH]1 | inactive: -0.523% | –
39 | CCOC(=O)c1[nH]c(=S)[nH]c1C | inactive: 6.79% | –
40 | O=S(=O)(Cc1cc(NCc2ccccc2)nc(-c2ccccn2)n1)c1ccccc1 | inactive: 3.41% | –
41 | COC(=O)c1ccc(C2N=C(c3cccs3)CC(c3ccccc3O)N2)cc1 (stereo unspecified) | – | inconclusive [cytotoxic, single point]
42 | C[C@H](CO)N1C[C@H](C)[C@@H](CN(C)S(=O)(=O)c2ccc(F)cc2)Oc2ccc(NC(=O)Nc3ccc(C(F)(F)F)cc3)cc2C1=O | – | inconclusive [cytotoxic, single point]
43 | Cc1nn(Cc2c(Cl)cccc2Cl)c(C)c1NC(=O)c1sc2ccccc2c1Cl | – | inconclusive [cytotoxic, partial curve]
44 | CC1(C)OC(=O)C2=C(C[C@@H](C3CCCCC3)O[C@H]2c2ccccc2)O1 | – | inconclusive [cytotoxic, single point]
45 | S=C(NN=Cc1ccccn1)N(Cc1ccccn1)Cc1ccccn1 | – | inconclusive [cytotoxic, partial curve]
46 | COc1ccc(-c2c(N)nnc3c2[nH]c2ccccc23)cc1OC | inactive: -17.9% | –
47 | COc1ccc(N/N=C(/N=Nc2nc(C)cc(=O)[nH]2)c2ccccc2)cc1 | – | active: 3.66 µM
48 | CCCNC(=O)C1(C)CCN(CCC(=O)c2ccc(Br)cc2)C1 (stereo unspecified) | – | inconclusive [cytotoxic, single point]
49 | CCn1c(=O)c([N+](=O)[O-])c(Cl)c2ccccc21 | – | active: 3.66 µM
50 | O=[N+]([O-])c1nn(-c2ccc(Cl)cc2)n(O)c1=NCc1ccccc1 | inactive: -16.8% | –
51 | OCC1(CCc2ccccc2)CCCN(C/C=C/c2ccccc2)C1 (stereo unspecified) | – | inconclusive [cytotoxic, single point]
52 | ClC(=C\c1ccccc1)/C=N/N1CCN(c2ccccn2)CC1 | inactive: 8.33% | –

Row | SMILES | activity, negative = toxicity | Potency
53 | COc1ccccc1C(c1nnnn1CCc1ccccc1)N1CCCCCC1 (stereo unspecified) | – | inconclusive [cytotoxic, single point]
54 | Cc1nn(C)c(C)c1CNC(=O)c1nn2c(c1Cl)NC(c1cccs1)CC2C(F)(F)F (stereo unspecified) | – | inconclusive [cytotoxic, single point]
55 | CCOC(=O)C1=C(c2ccccc2)OC(N)=C(C#N)C1c1cccs1 (stereo unspecified) | – | inconclusive [cytotoxic, single point]
56 | Nc1ccc(Sc2ccccc2Cl)nc1 | inactive: 2.01% | –
57 | N#C/C(=C/c1cccc([N+](=O)[O-])c1)c1nnc2n1CCCCC2 | – | inconclusive [cytotoxic, single point]
58 | O=C(Nc1ccccn1)c1ccc(CN(c2ccccc2)S(=O)(=O)c2ccccc2)cc1 | inactive: -15.8% | –
59 | Cc1ccnc(Sc2ccc([N+](=O)[O-])cc2[N+](=O)[O-])n1 | – | inconclusive [cytotoxic, partial curve]
60 | COc1cccc(CN2CCN(CC(=O)Nc3ccccc3Cl)CC2)c1 | inactive: -7.53% | –
61 | Cc1[nH]n(-c2ccccc2)c(=O)c1N=Nc1c(O)cc(S(=O)(=O)N(C)C)c2ccccc12 | – | active: 9.2 µM
62 | CNc1ccc(/C=C2\COc3ccccc3C2=O)cc1[N+](=O)[O-] | inactive: 15.2% | –
63 | c1ccc(Nc2ccc3c4c(cccc24)CC3)cc1 | inconclusive: -6.36% [cytotoxic] | –
64 | CCOc1ccc2c(ccc(/C=C/c3cc(C)c4cccnc4c3O)[n+]2C)c1 | – | active: 23.1 µM
65 | O=C(Nc1ccccc1)Nc1ccccc1-n1ccnc1 | inactive: -7.56% | –
66 | Cc1ccc2nc(SCC(=O)c3c(C)[nH]c4ccccc34)[nH]c2c1 | inactive: -3.1% | –
67 | Cc1cccc2sc(NC(=O)CNS(=O)(=O)c3ccc(Br)s3)nc12 | – | inconclusive [cytotoxic, partial curve]
68 | Cc1ccc(S(=O)(=O)c2nc(S(C)(=O)=O)sc2N2CCC(C)CC2)cc1 | – | inconclusive [cytotoxic, single point]
69 | CC(=O)Nc1ccc(N=c2cc([N+](=O)[O-])cc(Cl)n2O)cc1 | inconclusive: -30.8% [cytotoxic] | –
70 | Cc1nc2ccccc2c2oc(C(=O)Nc3ccc(C(C)C)cc3)cc12 | – | inconclusive [cytotoxic, single point]
71 | COc1ccc(Nc2nc(N)nc(CSC(=S)N3CCOCC3)n2)cc1 | inactive: -24.8% | –
72 | Cc1ccc(NN2C(=O)C=C(c3ccc(Cl)cc3)C2=O)cc1 | – | inconclusive [cytotoxic, single point]
73 | COC(=O)[C@]12CCCCC=C1N(CCc1ccc(OC)c(OC)c1)C(=O)[C@H](CC(=O)NCCCCc1ccccc1)C2 | – | inconclusive [cytotoxic, single point]
74 | CC[n+]1c(C)n(-c2ccccc2)c2ccc(NC(C)=O)cc21 | – | inconclusive [cytotoxic, partial curve]
75 | O=C(Nc1ccncc1)c1c(F)cccc1F | – | inconclusive [cytotoxic, single point]
76 | COc1cccc(C(=O)Nc2cccc(C(=O)NC3=NN(c4c(Cl)cc(Cl)cc4Cl)C(=O)C3)c2)c1 | – | inconclusive [cytotoxic, single point]
